# B1: F307: phage lysin polypeptide, SEQ ID NO: 1, 16 kDa (protein, listed as Acinetobacter baumannii)
# chain: VKTSNPGVDLIKGFEGLRLKAYDDGVGVWTIGFGTIKYPNGVRVKKGDTCTESQAEEYLRNDLVVFESAINRLVKVPLNQNQFDALASFTYNLGEGNLSISTLLKKLNAKDYKGAAAEFPKWNKAGGRVLAGLVKRRKAEMELFLK
# Test system: A. baumannii strain 1791
# Assay: Transmission electron microscopy after F307 treatment
# Details: EDTA 250 μM + F307, 25° C.
molecule,measurement,value
B1,effect on cells in transmission electron micrographs,caused lysis through extrusion of the cytoplasmic membrane to the outside of the cell

# Source: US11180744B2, “Acinetobacter lysins” (priority 2014, dated 2021)
